Results: patent US10299477B2 (priority 2015, dated 2019)

Columns and labels:
Format in all cases: in vivo
[1] = tested on: Alternaia brassicicola; experiment: Test Example C: Alternaria sooty spot on cabbage; conditions: for Test C control value (Alternaria sooty spot on cabbage) / Test C (control value class): 250 ppm spray; for Test C control value (Alternaria sooty spot on cabbage): preventive, control value class; for Test C control value / Test C (control value class): Alternaria sooty spot on cabbage; for Test C (control value class, Alternaria sooty spot on cabbage): in vivo
From the text: [Test Example C] Alternaria Sooty Spot on Cabbage
Seeds of a test plant (cabbage variety: Shikidori) were planted followed by cultivating until the cotyledons extended.

[2] = tested on: Botrytis cinerea; experiment: Test Example B: Gray mold on tomato; conditions: for Test B control value (gray mold on tomato) / Test B (control value class): 250 ppm spray; for Test B control value (gray mold on tomato): preventive, control value class; for Test B control value: Gray mold on tomato; for Test B (control value class): gray mold on tomato, Botrytis cinerea; for Test B (control value class, gray mold on tomato): in vivo
From the text: [Test Example B] Gray Mold on Tomato
Seeds of a test plant (tomato variety: Oogata Fukuju) were planted followed by cultivating until three to five first leaves (true leaves) appeared.

[3] = tested on: Puccinia recondita; experiment: Test Example E: Brown rust on wheat; conditions: for Test E control value (brown rust on wheat) / Test E (control value class): 250 ppm spray; for Test E control value (brown rust on wheat): preventive, control value class; for Test E control value: Brown rust on wheat; for Test E (control value class): brown rust on wheat, Puccinia recondita; for Test E (control value class, brown rust on wheat): in vivo
From the text: [Test Example E] Brown Rust on Wheat

[4] = tested on: Blumeria graminis f sp. hordei; experiment: Test Example D: Powdery mildew on barley; conditions: for Test D control value (powdery mildew on barley) / Test D (control value class): 250 ppm spray; for Test D control value (powdery mildew on barley): preventive, control value class; for Test D control value: Powdery mildew on barley; for Test D (control value class): powdery mildew on barley; for Test D (control value class, powdery mildew on barley): in vivo
From the text: [Test Example D] Powdery Mildew on Barley
After the sprayed dilutions were dried, conidia of Blumeria graminis f sp. hordei were inoculated to the plants by shaking off.

[5] = tested on: Plasmopara viticola; experiment: Test Example G: Downy mildew on vine; conditions: for Test G control value (downy mildew on vine): 250 ppm spray (2.5 ml/pot), preventive, control value class; for Test G control value (downy mildew on vine) / Test G control value / Test G (control value class): 7-10 days after inoculation; for Test G control value: Downy mildew on vine, 250 ppm sprayed before inoculation; for Test G (control value class): downy mildew on vine, Plasmopara viticola, 250 ppm spray; for Test G (control value class, downy mildew on vine): 250 ppm, sprayed 2.5 ml/pot before inoculation, evaluated 7-10 days after inoculation
From the text: [Test Example G] Downy Mildew on Vine
Seeds of a test plant (grape variety: Neomuscat) were planted followed by cultivating until three to four first leaves appeared. […] After the sprayed dilutions were dried, a zoosporangia suspension (1-2×10^4 zoosporangia/ml) of Plasmopara viticola was inoculated to the plants by spraying.

| SMILES | Test C control value (Alternaria sooty spot on cabbage) [1] | Test B control value (gray mold on tomato) [2] | Test E control value (brown rust on wheat) [3] | Test D control value (powdery mildew on barley) [4] | Test G control value (downy mildew on vine) [5] | Test C (control value class, Alternaria sooty spot on cabbage) [1] | Test B (control value class, gray mold on tomato) [2] | Test E (control value class, brown rust on wheat) [3] | Test D (control value class, powdery mildew on barley) [4] | Test G (control value class, downy mildew on vine) [5] | also measured |
| --- | --- | --- | --- | --- | --- | --- | --- | --- | --- | --- | --- |
| Cn1c(-c2c(F)cc(F)cc2F)c(-c2cc(F)ccc2Cl)cc(Cl)c1=O [Compound 340] | H (H shows more than 50% of control values) | H (H shows more than 50% of control values) | H (H shows more than 50% of control values) | H (H shows more than 50% of control values) | L (L shows 50% or less of control values) |  |  |  |  |  |  |
| Cn1c(-c2c(F)cccc2F)c(-c2ccc(Br)cc2)cc(Br)c1=O [Compound 290] | H (H shows more than 50% of control values) | H (H shows more than 50% of control values) | H (H shows more than 50% of control values) | L (L shows 50% or less of control values) | H (H shows more than 50% of control values) |  |  |  |  |  |  |
| Cn1c(-c2c(F)cccc2F)c(-c2ccccc2F)cc(Br)c1=O [Compound 145] |  |  |  |  |  |  |  |  |  |  | Test C control value [1]: H (H shows more than 50% of control values); Test B control value [2]: H (H shows more than 50% of control values); Test E control value [3]: H (H shows more than 50% of control values); Test D control value [4]: H (H shows more than 50% of control values); Test G control value [5]: H (H shows more than 50% of control values) |
| CCn1c(-c2c(F)cccc2F)c(-c2cc(OCC(C)=O)ccc2Cl)ccc1=O [Compound 303] | H (H shows more than 50% of control values) | H (H shows more than 50% of control values) | H (H shows more than 50% of control values) | H (H shows more than 50% of control values) | L (L shows 50% or less of control values) |  |  |  |  |  |  |
| Cn1c(-c2c(F)cccc2F)c(-c2cc(F)cc(F)c2Cl)cc(Cl)c1=O [Compound 554] |  |  |  |  |  |  |  |  |  |  | Test C (control value class) [1]: H (H shows more than 50% of control values); Test B (control value class) [2]: H (H shows more than 50% of control values); Test E (control value class) [3]: H (H shows more than 50% of control values); Test D (control value class) [4]: H (H shows more than 50% of control values); Test G (control value class) [5]: L (L shows 50% or less of control values) |
| Cn1c(-c2c(F)cc(Br)cc2F)c(-c2cc(F)ccc2Cl)ccc1=O [Compound 680] |  |  |  |  |  | H (H shows more than 50% of control values) | H (H shows more than 50% of control values) | H (H shows more than 50% of control values) | L (L shows 50% or less of control values) | L (L shows 50% or less of control values) |  |
| CCn1c(-c2c(F)cc(OC)cc2F)c(-c2cccc(OC)c2Cl)ccc1=O [Compound 633] |  |  |  |  |  | H (H shows more than 50% of control values) | H (H shows more than 50% of control values) | H (H shows more than 50% of control values) | H (H shows more than 50% of control values) | H (H shows more than 50% of control values) |  |
| CCn1c(-c2c(F)cc(F)cc2F)c(-c2cc(F)ccc2Cl)cc(Cl)c1=O [Compound 322] | H (H shows more than 50% of control values) | H (H shows more than 50% of control values) | H (H shows more than 50% of control values) | H (H shows more than 50% of control values) | L (L shows 50% or less of control values) |  |  |  |  |  |  |
| COc1cc(OC)c(Cl)c(-c2ccc(=O)n(C)c2-c2c(F)cccc2Br)c1 [Compound 185] | H (H shows more than 50% of control values) | H (H shows more than 50% of control values) | H (H shows more than 50% of control values) | H (H shows more than 50% of control values) | L (L shows 50% or less of control values) |  |  |  |  |  |  |
| COc1cc(OC)c(Br)c(-c2ccc(=O)n(C)c2-c2c(F)cc(Br)cc2F)c1 [Compound 204] | H (H shows more than 50% of control values) | H (H shows more than 50% of control values) | H (H shows more than 50% of control values) | H (H shows more than 50% of control values) | H (H shows more than 50% of control values) |  |  |  |  |  |  |
| COc1ccc(-c2cc(Br)c(=O)n(C)c2-c2c(F)cccc2F)c(Cl)c1 [Compound 744] |  |  |  |  |  | L (L shows 50% or less of control values) | L (L shows 50% or less of control values) | H (H shows more than 50% of control values) | L (L shows 50% or less of control values) | L (L shows 50% or less of control values) |  |
| Cn1c(-c2c(F)cccc2F)c(-c2ccccc2C(F)(F)F)ccc1=O [Compound 157] |  |  |  |  |  |  |  |  |  |  | Test C control value [1]: H (H shows more than 50% of control values); Test B control value [2]: H (H shows more than 50% of control values); Test E control value [3]: H (H shows more than 50% of control values); Test D control value [4]: H (H shows more than 50% of control values); Test G control value [5]: H (H shows more than 50% of control values) |
| CCn1c(-c2c(F)cc(F)cc2F)c(-c2cc(F)ccc2Cl)ccc1=O [Compound 321, 5-(2-chloro-5-fluorophenyl)-1-ethyl-6-(2,4,6-trifluorophenyl)pyridine-2(1H)-one] | H (H shows more than 50% of control values) | H (H shows more than 50% of control values) | H (H shows more than 50% of control values) | H (H shows more than 50% of control values) | H (H shows more than 50% of control values) |  |  |  |  |  |  |
| O=c1ccc(-c2cccc(F)c2Cl)c(-c2c(F)cccc2F)n1CC(F)F [Compound 510] |  |  |  |  |  |  |  |  |  |  | Test C (control value class) [1]: H (H shows more than 50% of control values); Test B (control value class) [2]: H (H shows more than 50% of control values); Test E (control value class) [3]: H (H shows more than 50% of control values); Test D (control value class) [4]: H (H shows more than 50% of control values); Test G (control value class) [5]: H (H shows more than 50% of control values) |
| CCn1c(-c2c(F)cc(OC)cc2F)c(-c2cccc(F)c2F)ccc1=O [Compound 588] |  |  |  |  |  | H (H shows more than 50% of control values) | H (H shows more than 50% of control values) | H (H shows more than 50% of control values) | H (H shows more than 50% of control values) | H (H shows more than 50% of control values) |  |
| Cn1c(-c2c(F)cc(Cl)cc2F)c(-c2cc(F)ccc2Cl)cc(Cl)c1=O [Compound 605] |  |  |  |  |  | H (H shows more than 50% of control values) | H (H shows more than 50% of control values) | H (H shows more than 50% of control values) | H (H shows more than 50% of control values) | L (L shows 50% or less of control values) |  |
| COc1ccc(-c2cc(Cl)c(=O)n(C)c2-c2c(F)cccc2F)c(Cl)c1 [Compound 743] |  |  |  |  |  | H (H shows more than 50% of control values) | H (H shows more than 50% of control values) | H (H shows more than 50% of control values) | H (H shows more than 50% of control values) | L (L shows 50% or less of control values) |  |
| CCn1c(-c2c(F)cc(OC)cc2F)c(-c2cccc(F)c2C)cc(Br)c1=O [Compound 711] |  |  |  |  |  | H (H shows more than 50% of control values) | H (H shows more than 50% of control values) | H (H shows more than 50% of control values) | H (H shows more than 50% of control values) | H (H shows more than 50% of control values) |  |
